This is an account of results in the supplement of paper PMC4967469.

A lower IC50 marks a more sensitive line; fits outside the tested doses are given as limits. AUC, from the same fit, is the share of area under the viability curve across the 256-fold dose range; it is 1 without any effect and falls as sensitivity rises. For some assays here: Where the top dose is marked as inferred, it was derived from the fitted curves, not read from the paper. For some assays here: Drugs with an entry number were screened twice under separate entries, and the two screens often disagree. Bounds are passed on as bounds.

Common to all, as to assay: Viability of human cancer cell lines after 72 h of drug (GDSC screen)
Compound in one test: C[C@]1(O)C[C@@H](c2nc(-c3ccc4ccc(-c5ccccc5)nc4c3)c3c(N)nccn32)C1 [OSI-906]
The conditions noted are these: top dose 2.56 µM; top dose inferred. As for the experimental part: (§1)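 Human cancer cell lines in 384-well plates, medium with 10% serum, drug for 72 h over a 256-fold dose range (nine 2-fold or five 4-fold steps up to the top dose). Adherent lines were fixed and stained with the nucleic acid dye Syto60, suspension lines read with resazurin; signal relative to control wells, capped at 0 and 100%. One two-parameter sigmoid per drug and line, fitted in a mixed model over all curves with the slope shared within a line.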

Compound in another test: COC(=O)[C@H](CCSC)NC(=O)c1ccc(NC[C@@H](N)CS)cc1-c1ccccc1 [FTI-277]
The conditions noted are these: top dose 1.024 µM; top dose inferred. On the procedure: as §1

Compound in another test: Cc1sc2c(c1C)C(c1ccc(Cl)cc1)=N[C@@H](CC(=O)OC(C)(C)C)c1nnc(C)n1-2 [JQ1]
As for the experimental part:
as §1

Compound in the next test: Cc1ccc(C(=O)N(CCCN)[C@@H](c2nc3cc(Cl)ccc3c(=O)n2Cc2ccccc2)C(C)C)cc1 [SB-715992]
Conditions: top dose 0.128 µM; top dose inferred. As for the experimental part:
as §1

Compound in the next test: CC(=O)O[C@@]12CO[C@@H]1C[C@H](O)[C@@]1(C)C(=O)[C@H](O)C3=C(C)[C@@H](OC(=O)[C@H](O)[C@@H](NC(=O)OC(C)(C)C)c4ccccc4)C[C@@](O)([C@@H](OC(=O)c4ccccc4)[C@H]21)C3(C)C [Docetaxel]
The conditions noted are these: top dose 0.0125 µM. As for the experimental part: as §1

Compound in the next test: CN1CCN(c2ccc([N+](=O)[O-])c3no[n+]([O-])c23)CC1 [NSC-207895]
The conditions noted are these: top dose 20 µM; top dose inferred. On the procedure:
as §1

Compound in another test: c1ccc2c(CCNc3ccc(Nc4ccncc4)cc3)c[nH]c2c1 [JNJ-26854165]
The conditions noted are these: top dose 10 µM. On the procedure: as §1

Compound in a further test: O=C(/C=C/c1cccc(S(=O)(=O)Nc2ccccc2)c1)NO [Belinostat]
The conditions noted are these: top dose 20 µM; top dose inferred. As for the experimental part: as §1

Compound in another test: COCC[n+]1c2c(n(Cc3cnccn3)c1C)C(=O)c1ccccc1C2=O [YM155]
The conditions noted are these: top dose 5.12 µM. As for the experimental part: as §1

Compound in another test: CCOc1nc(NC(=O)Cc2cc(OC)ccc2OC)cc(N)c1C#N [JNK Inhibitor VIII]
Conditions: top dose 10 µM; top dose inferred. As for the experimental part:
as §1

Compound in a further test: CC1(C)CNc2cc(NC(=O)c3cccnc3NCc3ccncc3)ccc21 [AMG-706]
Conditions: top dose 2 µM; top dose inferred. As for the experimental part: as §1

Where [1] appears, read: top dose 1 µM, screen: GDSC drug entry 1218, top dose inferred.
[2] abbreviates: top dose 2.56 µM, screen: GDSC drug entry 163.

The term IC50 denotes the midpoint of a concentration-inhibition curve. G-MEL (melanoma, adherent): the AUC was 0.924 in the test with OSI-906; 0.966 in the test with FTI-277; 0.971 with JQ1 (setting [1]); 0.945 with JQ1 (setting [2]); 0.888 in the test with SB-715992; 0.653 in the test with Docetaxel. Also, in the test with NSC-207895, the AUC turned out to be 0.884. The IC50 with OSI-906 is > 2560 nM; with FTI-277 it was > 1020 nM; with JQ1 (setting [1]), > 1000 nM; with JQ1 (setting [2]) it was > 2560 nM; with SB-715992, > 128 nM; with Docetaxel it was 2.07 nM. Moreover, in the test with NSC-207895, the IC50 was > 20000 nM.

As to JHH-6 (liver, adherent), the AUC with OSI-906 came out at 0.895; with FTI-277, 0.911; in the test with JNJ-26854165, 0.837; with JQ1 (setting [1]), 0.977; with JQ1 (setting [2]) it was 0.667; with SB-715992 it was 0.973. For the same cell line, the figures for the AUC with Belinostat, with Docetaxel and in the test with NSC-207895 were 0.565, 0.678 and 0.9, respectively. Besides, the IC50 in the test with OSI-906 was > 2560 nM; with FTI-277, > 1020 nM; with JNJ-26854165, 6850 nM; with JQ1 (setting [1]) it was > 1000 nM; with JQ1 (setting [2]) it was 471 nM; in the test with SB-715992 it was > 128 nM. In addition, the IC50 is 1890 nM with Belinostat, 2.48 nM in the test with Docetaxel and > 20000 nM with NSC-207895.

As for “NCI-H292 (lung adenocarcinoma, adherent)”, the AUC with FTI-277 turned out to be 0.972; with JNJ-26854165 it was 0.755; with JQ1 (setting [1]), 0.976; with JQ1 (setting [2]), 0.8; with SB-715992 it was 0.931; with Belinostat, 0.27. The AUC in the test with YM155 amounted to 0.032; with Docetaxel it was 0.34; with NSC-207895, 0.827. Also, the IC50 with FTI-277 was > 1020 nM; with JNJ-26854165 it was 4070 nM; in the test with JQ1 (setting [1]) it was > 1000 nM; with JQ1 (setting [2]), 1550 nM; in the test with SB-715992, > 128 nM; with Belinostat it was 238 nM. The IC50 is < 20 nM in the test with YM155, 0.253 nM with Docetaxel and 15900 nM with NSC-207895.

As for OVCAR-3 (ovary, adherent), the AUC with OSI-906 amounted to 0.955; with JNK Inhibitor VIII, 0.984; with FTI-277, 0.985; with JNJ-26854165, 0.862; with JQ1 (setting [1]) it was 0.985; in the test with JQ1 (setting [2]) it was 0.765. Further, the AUC turned out to be 0.983 in the test with SB-715992; 0.974 with AMG-706; 0.987 with Belinostat; 0.977 in the test with YM155; 0.987 in the test with NSC-207895. The IC50 with OSI-906 is > 2560 nM; with JNK Inhibitor VIII, > 10000 nM; in the test with FTI-277, > 1020 nM; with JNJ-26854165, 9990 nM; with JQ1 (setting [1]) it was > 1000 nM; in the test with JQ1 (setting [2]), 1030 nM. In addition, the IC50 was > 128 nM in the test with SB-715992; > 2000 nM with AMG-706; > 20000 nM in the test with Belinostat; > 5120 nM in the test with YM155; > 20000 nM with NSC-207895.

As to OVMIU (ovary, adherent), the AUC in the test with OSI-906 worked out at 0.915; in the test with JNK Inhibitor VIII, 0.879; in the test with FTI-277 it was 0.976; with JNJ-26854165, 0.811; in the test with JQ1 (setting [2]) it was 0.614; in the test with SB-715992 it was 0.927. The AUC is 0.938 with AMG-706, 0.395 in the test with Belinostat, 0.039 in the test with YM155 and 0.76 in the test with NSC-207895. Also, the IC50 in the test with OSI-906 is > 2560 nM; in the test with JNK Inhibitor VIII, > 10000 nM; with FTI-277, > 1020 nM; with JNJ-26854165 it was 7010 nM; in the test with JQ1 (setting [2]) it was 357 nM; in the test with SB-715992, > 128 nM. For the same cell line, the IC50 is > 2000 nM with AMG-706, 598 nM in the test with Belinostat, < 20 nM with YM155 and 8680 nM in the test with NSC-207895.

For the cell line PA-1 (ovary, adherent), the AUC is 0.993 with OSI-906; 0.993 with JNK Inhibitor VIII; 0.945 with FTI-277; 0.779 with JNJ-26854165; 0.679 in the test with JQ1 (setting [2]); 0.496 with SB-715992. In addition, the AUC is 0.993 with AMG-706, 0.044 with Belinostat, 0.011 in the test with YM155 and 0.769 in the test with NSC-207895. Further, the IC50 is > 2560 nM with OSI-906; > 10000 nM with JNK Inhibitor VIII; > 1020 nM with FTI-277; 3190 nM in the test with JNJ-26854165; 446 nM with JQ1 (setting [2]); 7.82 nM with SB-715992. For the same cell line, the IC50 with AMG-706 is > 2000 nM; in the test with Belinostat it was < 78.1 nM; in the test with YM155, < 20 nM; with NSC-207895, 6000 nM.

Take PANC-03-27 (pancreas, adherent): the AUC turned out to be 0.929 with OSI-906; 0.93 with JNK Inhibitor VIII; 0.984 in the test with FTI-277; 0.847 with JNJ-26854165; 0.925 in the test with JQ1 (setting [1]); 0.94 in the test with JQ1 (setting [2]). The AUC with SB-715992 turned out to be 0.834; in the test with AMG-706, 0.988; with Belinostat, 0.537; with YM155, 0.029; in the test with NSC-207895 it was 0.976. In addition, the IC50 with OSI-906 was > 2560 nM; in the test with JNK Inhibitor VIII, > 10000 nM; with FTI-277, > 1020 nM; in the test with JNJ-26854165, 6640 nM; with JQ1 (setting [1]), > 1000 nM; with JQ1 (setting [2]), > 2560 nM. The IC50 with SB-715992 was 75.6 nM; in the test with AMG-706, > 2000 nM; with Belinostat, 1560 nM; with YM155, < 20 nM; with NSC-207895, > 20000 nM.
